The list shows a part of the results. At the low end of the ranking the order means little.
The sequences below were run against SIX1-Q177R homeodomain (UniProt Q15475) (assay: universal protein binding microarray). Conditions: Universal all-10-mer PBM (8x60K, AMADID 030236), 300 nM GST-tagged protein, Alexa Fluor 488 anti-GST; buffer, salt, pH and temperature not stated; high values mean tight binding; most listed sequences are background and not binding sites; double strand, one strand shown.

Q: Which binding signal does the source give for CAAAAGTG here?
A: 0.0612 E-score

Q: How did the binding signal turn out when AATAAAGT was run?
A: -0.144 E-score

Q: TAGAAGAA was tested. Which binding signal did it give?
A: -0.02 E-score

Q: Which binding signal does the source give for AGGCTTGG here?
A: -0.136 E-score

Q: Which binding signal does the source give for CGGTAGTA here?
A: 0.00874 E-score

Q: How did the binding signal turn out when AGGGGACA was run?
A: 0.179 E-score

Q: Which binding signal does the source give for GCGATGTA here?
A: 0.123 E-score

Q: With CTTCCGCC as the sequence, how does the binding signal read?
A: -0.225 E-score

Q: With ACGACTGC as the sequence, how does the binding signal read?
A: -0.00522 E-score

Q: Which binding signal does the source give for GTGTTCTA here?
A: 0.392 E-score

Q: How did the binding signal turn out when CGGGACTA was run?
A: -0.305 E-score

Q: ACCCACAC was tested. Which binding signal did it give?
A: 0.348 E-score

Q: For AACTAATG, which binding signal is on record?
A: -0.232 E-score

Q: How did the binding signal turn out when ACCTAGTC was run?
A: -0.00298 E-score

Q: How did the binding signal turn out when AATTTAAA was run?
A: -0.207 E-score

Q: For ACGTCCAT, which binding signal is on record?
A: -0.103 E-score

Q: Which binding signal does the source give for ACGCCCGA here?
A: 0.17 E-score

Q: How did the binding signal turn out when CTCCTGAA was run?
A: -0.0647 E-score

Q: With GGAGAGCA as the sequence, how does the binding signal read?
A: -0.0895 E-score

Q: GCATCCGA was tested. Which binding signal did it give?
A: 0.0812 E-score

Q: With GTGTTACA as the sequence, how does the binding signal read?
A: 0.442 E-score

Q: For GCTACATA, which binding signal is on record?
A: -0.199 E-score

Q: Which binding signal does the source give for AACGTCTA here?
A: -0.231 E-score

Q: How did the binding signal turn out when CCAATAAA was run?
A: -0.102 E-score

Q: With CACTGAGA as the sequence, how does the binding signal read?
A: 0.202 E-score

Q: With CTGAAGTC as the sequence, how does the binding signal read?
A: -0.111 E-score

Q: For ACAGAAGA, which binding signal is on record?
A: -0.0919 E-score

Q: How did the binding signal turn out when CACATTAC was run?
A: 0.0396 E-score

Q: How did the binding signal turn out when CATTTAAG was run?
A: -0.291 E-score

Q: GATCCCCC was tested. Which binding signal did it give?
A: 0.368 E-score

Q: How did the binding signal turn out when GATCAACC was run?
A: -0.0524 E-score

Q: Which binding signal does the source give for AACGACAG here?
A: -0.0981 E-score

Q: For GGTTCTAC, which binding signal is on record?
A: -0.0604 E-score

Q: GATTATAC was tested. Which binding signal did it give?
A: 0.081 E-score

Q: For GCCACAAA, which binding signal is on record?
A: -0.101 E-score

Q: For ATTCTGAA, which binding signal is on record?
A: -0.255 E-score

Q: How did the binding signal turn out when ACATATCC was run?
A: -0.141 E-score

Q: ATCCTTAC was tested. Which binding signal did it give?
A: 0.0764 E-score

Q: ACCACACA was tested. Which binding signal did it give?
A: 0.196 E-score

Q: With GCCCGGCC as the sequence, how does the binding signal read?
A: -0.00347 E-score

Q: How did the binding signal turn out when CATGGTCG was run?
A: -0.0497 E-score

Q: For GGACCCCA, which binding signal is on record?
A: 0.138 E-score

Q: For ACTTGCCA, which binding signal is on record?
A: -0.0386 E-score

Q: How did the binding signal turn out when GGATGCAC was run?
A: 0.0254 E-score

Q: For ATGGCGCG, which binding signal is on record?
A: -0.118 E-score

Q: How did the binding signal turn out when GATTGTAA was run?
A: -0.248 E-score

Q: With CCGGCGAA as the sequence, how does the binding signal read?
A: -0.11 E-score

Q: With AAACTTCC as the sequence, how does the binding signal read?
A: -0.22 E-score

Q: With AATAAGGT as the sequence, how does the binding signal read?
A: -0.0889 E-score

Q: With AATGGCTA as the sequence, how does the binding signal read?
A: -0.13 E-score

Q: With GACGAAAC as the sequence, how does the binding signal read?
A: -0.296 E-score

Q: CGAACTGC was tested. Which binding signal did it give?
A: -0.238 E-score

Q: ATACGGAT was tested. Which binding signal did it give?
A: 0.0821 E-score

Q: CGAACCTA was tested. Which binding signal did it give?
A: -0.117 E-score

Q: For GGTGACGA, which binding signal is on record?
A: -0.0414 E-score

Q: With CCCCTAAA as the sequence, how does the binding signal read?
A: -0.0522 E-score

Q: How did the binding signal turn out when GCAACATA was run?
A: -0.121 E-score

Q: For ACCGGGTC, which binding signal is on record?
A: 0.237 E-score

Q: With ACCCCGTC as the sequence, how does the binding signal read?
A: 0.178 E-score

Q: How did the binding signal turn out when CAAATTCA was run?
A: -0.139 E-score

Q: For AAATCAGT, which binding signal is on record?
A: 0.0212 E-score

Q: How did the binding signal turn out when GGAAAGCA was run?
A: -0.085 E-score

Q: With GCAACGCC as the sequence, how does the binding signal read?
A: 0.0787 E-score

Q: CCCTCCAG was tested. Which binding signal did it give?
A: 0.149 E-score

Q: ACAAAGAA was tested. Which binding signal did it give?
A: -0.0597 E-score

Q: For CGGGTGGA, which binding signal is on record?
A: 0.173 E-score

Q: CAAGGGGG was tested. Which binding signal did it give?
A: 0.143 E-score

Q: For AACACGGG, which binding signal is on record?
A: 0.432 E-score

Q: How did the binding signal turn out when ATTCAGTA was run?
A: -0.195 E-score

Q: Which binding signal does the source give for TCGGTCAA here?
A: -0.0711 E-score

Q: For CGAGTAAC, which binding signal is on record?
A: 0.0985 E-score

Q: How did the binding signal turn out when CGAGATTC was run?
A: -0.0507 E-score

Q: Which binding signal does the source give for ACTATGAA here?
A: -0.157 E-score

Q: CCCATTGC was tested. Which binding signal did it give?
A: -0.0231 E-score

Q: For CGCTGGTA, which binding signal is on record?
A: -0.0475 E-score

Q: TCGAGCCA was tested. Which binding signal did it give?
A: 0.0597 E-score

Q: With AGTACAGA as the sequence, how does the binding signal read?
A: -0.121 E-score

Q: With AGAGGGGA as the sequence, how does the binding signal read?
A: 0.0312 E-score

Q: With TAGATTAA as the sequence, how does the binding signal read?
A: -0.0193 E-score

Q: With AGAGAGTC as the sequence, how does the binding signal read?
A: -0.0205 E-score

Q: For ACATATCA, which binding signal is on record?
A: -0.0686 E-score

Q: Which binding signal does the source give for CAAAGTCG here?
A: -0.104 E-score

Q: How did the binding signal turn out when CCTGCTCG was run?
A: -0.12 E-score

Q: For CGTAAATA, which binding signal is on record?
A: -0.0461 E-score

Q: With GACACCAC as the sequence, how does the binding signal read?
A: 0.489 E-score

Q: With ACTTTGAT as the sequence, how does the binding signal read?
A: -0.0928 E-score
